The record followed here is ChEMBL document CHEMBL1201862, “PubChem BioAssay data set” (2004).

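Cultured in 96-well plates, cells were exposed to test compound for 48 hours across five concentrations. GI50 marks 50% less growth.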 Active and inactive are the calls of the source. Cut-off read from the data, not from the text of the source: active = GI50 up to about 1.1 µM and inactive = higher.

In this test the test system is NCI-H322M. The test is described as follows: NCI-60 cell line screen, 48 h.
As to `O=C(O)COc1c(Cl)cc(Cl)c2cccnc12`, the GI50 is inactive: > 100 µM. As to `c1ccc2c(c1)ccc1ncccc12`, the GI50 was inactive: > 100 µM. Take `Cn1c(N)nc(-c2ccc(Cl)cc2)c1SSc1c(-c2ccc(Cl)cc2)nc(N)n1C`: the GI50 was inactive: 19.8 µM. In the case of `CCOC(=O)C1S/C(=N\c2ccc(Cl)cc2)N=C1C` (stereo not drawn), the GI50 is inactive: 21 µM. In the case of `CC1CC(=O)Nc2ccc(Cl)cc2N1C(=O)CN1CCC(CCCCN(C)C)CC1` (stereo not drawn), the GI50 is inactive: > 100 µM. Next, `CCOC(=O)CSc1nc2ccccc2c(=O)n1N`: inactive: > 100 µM; `Cc1cccc2c(=O)c([Se]c3coc4c(C)cccc4c3=O)coc12`: inactive: 4.95 µM; `CN(CC(=O)O)c1ncc2c(n1)C=CCC2`: inactive: > 100 µM. Take `COC1(OC)C2(Cl)C(Cl)=C(Cl)C1(Cl)C1C=CC=CC12` (stereo not drawn): the GI50 is inactive: > 100 µM.

`COc1cc2c3c(n(C)c(=O)c2cc1OC)-c1cc2c(cc1/C3=C\CCCCCBr)OCO2`: the GI50 is inactive: 20 µM. For the compound `CNC(=O)Oc1ccc(-c2cn3cc(OC(=O)NC)ccc3n2)cc1`, the GI50 is inactive: 38.7 µM. On to `CNC(=O)OCc1nc(SC)n(C)c1CO`, for which the GI50 is inactive: > 100 µM. Take `CN(C)c1ccc(/C=N/c2ccc(-c3nc4ccccc4o3)cc2)cc1`: the GI50 was inactive: > 100 µM. With `O=C1Oc2ccccc2N/C1=C/C(=O)c1ccc([N+](=O)[O-])cc1`, the GI50 was inactive: > 100 µM. Next, `CN1CCOC(c2ccccc2)O1` (stereo not drawn): inactive: > 100 µM; `C/C(=N\NC(=S)N(C)CCN(C)C(=S)N/N=C(\C)c1ccccn1)c1ccccn1`: active: 0.459 µM. Consider `Oc1ccccc1/C=N/Nc1nc(N/N=C/c2ccccc2O)nc(N/N=C/c2ccccc2O)n1`, for which the GI50 was inactive: > 100 µM. On to `CCOC(=O)C(NC(=O)c1ccco1)(Nc1nc2ccc(OCC)cc2s1)C(F)(F)F` (stereo not drawn), for which the GI50 was inactive: 72.4 µM. With `CCCCCC(=O)n1[nH]c(=O)n(-c2ccc(OC)cc2)c1=O`, the GI50 was inactive: > 100 µM.

With `COC(=O)CN(CC(=O)NCCCBr)C1CCCCC1N(CC(=O)OC)CC(=O)OC` (stereo not drawn), the GI50 was inactive: > 100 µM. Next, `CC(C)(C)OC(=O)CN1CCNCCNCC1`: inactive: > 100 µM; `COc1ccc(-c2onc(-c3ccc([N+](=O)[O-])cc3)c2C2=NCCCN2)cc1`: inactive: 80.4 µM. On to `CC(=O)OC1=CC2(OC(C)=O)CC(C)(C)C1C1C(=O)C=CC(=O)C12` (stereo not drawn), for which the GI50 is inactive: > 100 µM. As for `COc1ccccc1Cn1c2c(c3c(C(=O)NCCN(C)C)c(O)ccc31)C(=O)c1ccccc1C2=O`, the GI50 is inactive: 1.77 µM. For the compound `COc1ccc2c(CN3CCCCC3CO)cc3cc(OC)c(OC)cc3c2c1` (stereo not drawn), the GI50 is inactive: 4.7 µM. Regarding `N#CC1C(=O)NC23CCCCC2C1c1ccccc1O3` (stereo not drawn), the GI50 was inactive: > 100 µM. In the case of `O=C1/C(=C/c2cccc(O)c2)COc2ccccc21`, the GI50 is inactive: 16.8 µM. `O=c1c2ccccc2nc2n1CCc1c-2[nH]c2ccc(Br)cc12`: the GI50 is inactive: > 100 µM. As to `CCN(CC)C(=O)CCN1CC1`, the GI50 is inactive: > 10 µM. With `CN(CC(=O)O)c1ncc2c(n1)-c1ccccc1OC2c1ccccc1` (stereo not drawn), the GI50 was inactive: > 100 µM. Take `CCCCCCCCCCCCCCCCCC(=O)NCCCNCCCNC(=O)CCCCCCCCCCCCCCCCC`: the GI50 is inactive: > 100 µM. For the compound `Clc1ccc(C[P+]2(c3ccccc3)CCCCC2)cc1.[O-][Cl+3]([O-])([O-])[O-]`, the GI50 is inactive: > 100 µM. As for `Cc1c(C(=O)CC(=O)C(=O)Nc2cc(Cl)ccc2Cl)[n+]([O-])c2ccccc2[n+]1[O-]`, the GI50 is inactive: 33.3 µM.

On to `CCOC(=O)c1cc(-n2nnc3ccccc32)cn1C`, for which the GI50 is inactive: > 10 µM. On to `COC(=O)c1cc(C)c(C)c2c1NC(=O)CNC2=O`, for which the GI50 is inactive: > 100 µM. `O=c1oc(-c2ccccc2)c(-c2ccccc2)n1-c1ccc(Br)cc1`: the GI50 was inactive: 60 µM. For the compound `Nc1ncnc2c1ccn2C/C=C\CO`, the GI50 is inactive: > 100 µM. Next, `CC(C)[C@@H]1NC(=O)[C@H]2N=C(O[C@@H]2C)[C@@H]2CCCN2C(=O)[C@H](Cc2ccccc2)NC(=O)[C@@H]2CSC(=N2)[C@@H](Cc2ccccc2)NC(=O)[C@@H]2CSC1=N2`: inactive: > 50 µM; `CC1=NN(c2ccccc2Cl)C2(C1)SCC(=O)N2c1nc2ccccc2s1` (stereo not drawn): inactive: > 100 µM; `CC12CCC(=O)N1c1cncnc1N2` (stereo not drawn): inactive: > 10 µM.

Regarding `O=c1c2c(nc3[nH]ccn13)CCC2`, the GI50 is inactive: > 10 µM. In the case of `CCOC(=O)N1CCc2cc(OC)c(OC)cc2/C1=C/c1ccc(OC)c(OC)c1`, the GI50 is inactive: > 100 µM. Regarding `C=C1CCN2CC[C@@H](OC(=O)/C(C)=C\C)[C@@H]12`, the GI50 is inactive: > 100 µM. Consider `O=C(CSCC(=O)N/N=C\c1ccc(-c2ccccc2)cc1)N/N=C\c1ccc(-c2ccccc2)cc1`, for which the GI50 is inactive: 22.8 µM. Turning to `COc1ccccc1NS(=O)(=O)c1cc(C(C)(C)C)ccc1OCCOc1ccc(C(C)(C)C)cc1S(=O)(=O)Nc1ccccc1OC`, the GI50 is inactive: > 100 µM. On to `Cc1ccc([N+](=O)[O-])cc1S(=O)(=O)Nc1ccc(C(=O)/C=C/c2ccccc2)cc1`, for which the GI50 is inactive: 24.8 µM. To `O=C1Nc2ccc(Br)cc2/C1=N/S(=O)(=O)O` belongs inactive: 75.5 µM. `C=C1C(=O)O[C@H]2C(=O)[C@H](C)CCC[C@@](C)(O)/C=C\C[C@@]3(C)O[C@@H]3C[C@@H]12`: the GI50 is inactive: 35.9 µM. As for `COC(=O)c1n[nH]c(C)c1/N=N/N(C)CCC#N`, the GI50 was inactive: 22.5 µM. Next, `CCNCC(=O)O[C@]1(CC)C(=O)OCc2c1cc1n(c2=O)Cc2cc3ccccc3nc2-1`: active: 0.933 µM; `C=C1C(=O)OC2/C=C(\CO)C(OC(C)=O)CC(O)/C(C)=C/C(OC(=O)C(C)CC)C12` (stereo not drawn): inactive: 72.9 µM; `CC(C)(C)C1CCC2c3c([nH]c4ccccc34)C3C(=O)N(c4cccc(Cl)c4)C(=O)C3C2C1` (stereo not drawn): inactive: 16.4 µM.

Regarding `CC(Br)C(=O)NC(CO)C(=O)O` (stereo not drawn), the GI50 is inactive: > 100 µM. Turning to `Clc1ccc(C2=NN(c3ccccc3)C3c4cc(Br)ccc4OCC23)cc1` (stereo not drawn), the GI50 was inactive: 97.5 µM. Next, `Cc1ccc(Cl)c2c(=O)cc(-c3ccccc3)[nH]c12`: inactive: 71.3 µM; `CCOC(=O)c1c(SC(=O)C(C)(C)Oc2ccc(Cl)cc2)n(-c2ccccc2)c(=S)n(-c2ccccc2)c1=O`: inactive: 25.5 µM. In the case of `C[n+]1cccc2ccc3cccnc3c21`, the GI50 was inactive: 36.1 µM. For `C/C(=N\NC(=O)N/N=C(\C)c1ccccn1)c1ccccn1`, the GI50 was inactive: 27.4 µM. With `CCOC(=O)C(NC(=O)Nc1ccc(Cl)cc1)(OC)C(F)(F)F` (stereo not drawn), the GI50 was inactive: 83.6 µM. As for `Cc1ccc(/C=N\NC(=O)c2ccncc2)s1`, the GI50 was inactive: > 100 µM.

Turning to `CN(C)CC(/C(Cc1ccccc1)=N\NC(=O)C[n+]1ccccc1)c1ccccc1` (stereo not drawn), the GI50 is inactive: > 100 µM. To `CCCCCCCCCCCCCCCCOP(=O)(O)OCC(N)C(=O)O` (stereo not drawn) belongs inactive: 34.4 µM; to `C=C1COC(/C=C(\C)CC/C=C(\C)CCl)C1` (stereo not drawn), inactive: > 100 µM. For `Cn1c(=O)c2c(nc3n(Cc4ccccc4)c(=O)c(Br)cn23)n(C)c1=O`, the GI50 was inactive: > 100 µM. Regarding `OCC1OC(c2scc3c(=S)[nH]cnc23)C(O)C1O` (stereo not drawn), the GI50 was inactive: 23.2 µM. Next, `Cn1nc2ccc([N+](=O)[O-])c(Cn3nnc4ccccc43)c2n1`: inactive: > 100 µM; `OC(c1ccc(C(F)(F)F)cc1)C(F)(F)c1nc2ccccc2o1` (stereo not drawn): inactive: > 100 µM; `CCn1c2ccc(C(=O)CCCN3CCCCC3)cc2c2cc(C(=O)CCCN3CCCCC3)ccc21`: inactive: 2.77 µM. Next, `O=C(NNc1ccnc2cc(Cl)ccc12)/C(=C\c1ccccc1Cl)NC(=O)c1ccccc1`: inactive: > 100 µM; `C=C(C)[C@@H]1CCc2c(c(C)cc(O)c(=O)c2O)C1`: inactive: 3.72 µM. As for `Cn1ccc(C(=O)NCCN(CCNC(=O)c2ccn(C)c(=O)c2O)CCNC(=O)c2cccc(=O)n2O)c(O)c1=O`, the GI50 was inactive: > 100 µM.

As to `COc1ccc(C(=O)C(CC2C(=O)NC(=O)NC2=O)c2ccc(OC)cc2)cc1` (stereo not drawn), the GI50 was inactive: > 100 µM. As to `C[Si](C)(C)C(Sc1ccccc1)(Sc1ccccc1)Sc1ccccc1`, the GI50 is inactive: > 100 µM. As to `CN(Cc1cnc2nc(N)nc(N)c2n1)c1ccc(C(=O)NC(CCC(=O)NCCC(P(=O)(O)O)P(=O)(O)O)C(=O)O)cc1` (stereo not drawn), the GI50 was inactive: > 48.2 µM. In the case of `COC(=O)[C@]1(c2cc3ccccc3n2S(=O)(=O)c2ccccc2)CC2CN(C(=O)OCc3ccccc3)C1C1OC(C)(C)OC21` (stereo partly drawn), the GI50 is inactive: > 100 µM. Consider `O=[N+]([O-])c1cccc(-c2nc(-c3ccccc3)c(-c3ccccc3)[nH]2)c1`, for which the GI50 was inactive: > 100 µM. As for `CC(=O)O[C@@H]1C2C(=O)OC(=O)C2C2CCC[C@]23O[C@H]13` (stereo partly drawn), the GI50 was inactive: > 100 µM. With `CC(C)=CC1C[C@H](C2CC=C3C2(C)CCC2[C@@]3(C)C(=O)CC3[C@]2(C)C=CC(=O)[C@]3(C)CO)CO1` (stereo partly drawn), the GI50 is inactive: 24.2 µM. For `C#C[C@H]1CCCCCC1O` (stereo partly drawn), the GI50 is inactive: > 100 µM. To `COc1cc(C2c3cc4c(cc3[C@@H](NCCN(C)C)C3COC(=O)[C@H]23)OCO4)cc(OC)c1O` (stereo partly drawn) belongs inactive: 1.81 µM; to `CCOC(=O)N1CCC(N[C@@H]2c3cc4c(cc3[C@@H](c3cc(OC)c(O)c(OC)c3)[C@H]3C(=O)OC[C@@H]32)OCO4)CC1`, inactive: 12.6 µM; to `CC1=C[C@]2(CC(C)C3C(CC4(C)C5CCC6C(C)(C)C(=O)CC[C@@]67C[C@@]57CC[C@]34C)O2)OC1=O` (stereo partly drawn), inactive: 54.5 µM. `Oc1[nH]c(Nc2cc(Cl)cc(Cl)c2)nc2ncnc1-2`: the GI50 is inactive: > 75 µM.
